These results are taken from the supplement of paper PMC3334620.

The full ranking holds about 33,000 sequences; the median of “E-score (-0.5 to 0.5)” is about -0.013, and the highest 2% start at about 0.3. The list shows a part of the results.

For this experiment, the target named is T1, Msn1 (UniProt P22148).
T1 sequence: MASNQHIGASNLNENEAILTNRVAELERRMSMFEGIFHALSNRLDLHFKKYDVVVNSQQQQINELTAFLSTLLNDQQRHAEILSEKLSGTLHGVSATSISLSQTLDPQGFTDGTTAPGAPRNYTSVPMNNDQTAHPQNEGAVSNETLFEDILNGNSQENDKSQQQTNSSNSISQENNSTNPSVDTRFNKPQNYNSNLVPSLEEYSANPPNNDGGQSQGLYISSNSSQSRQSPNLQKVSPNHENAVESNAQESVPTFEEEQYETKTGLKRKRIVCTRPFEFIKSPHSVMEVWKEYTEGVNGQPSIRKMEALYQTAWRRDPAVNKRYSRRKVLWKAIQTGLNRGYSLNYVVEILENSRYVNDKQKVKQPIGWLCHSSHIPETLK
Put plainly: PBM E-score (8-mer binding enrichment) (E-score (-0.5 to 0.5)); higher = stronger / more preferred TF binding; most listed sequences are background and not binding sites. The conditions noted are these: protein concentration: 200 nM; construct: GST-full length. The procedure, abridged: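 For each ungapped eight-base word taken together with its reverse complement, the Universal PBM Analysis Suite assigned an E-score. Binding data came from GST-tagged yeast transcription factors, applied at about 100-200 nM, on universal all-10-mer Agilent arrays made double-stranded by primer extension. Fluorescent anti-GST marked bound protein, and scans were normalised with masliner.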
Regarding CCAAATCA, the “PBM E-score” value was -0.0883.
For CACGGAGC, the “PBM E-score” value worked out at 0.0778.
Regarding GGACGTAA, the “PBM E-score” value was determined as 0.21.
For GGGAACTA, the “PBM E-score” value is -0.0808.
In the case of ACCCATGA, the “PBM E-score” value was -0.158.
In the case of GCATACCA, the “PBM E-score” value is -0.106.
The same measure for ACCCCCGA: -0.144; for TGGATCAA: -0.0815; for ACGGATGC: 0.0505.
In the case of CTCTGACC, the “PBM E-score” value is -0.19.
Consider CTTCTGTC, for which the “PBM E-score” value was 0.192.
Consider CGCATTTC, for which the “PBM E-score” value is 0.135.
Regarding ACATGTAC, the “PBM E-score” value stood at 0.263.
For CGGGAAAG, the “PBM E-score” value was -0.038.
As for ACGGTCAT, the “PBM E-score” value came to 0.0534.
On to GTAGGTAA, for which the “PBM E-score” value was -0.1.
Take TAACCACA: the “PBM E-score” value was -0.0961.
In the case of ATAACGCA, the “PBM E-score” value amounted to 0.0182.
CCGGAAAG: the “PBM E-score” value is -0.113.
Consider CATCGCTA, for which the “PBM E-score” value is 0.159.
The value for TGTAAACA was 0.0354.
In the case of GCTCGTCA, the “PBM E-score” value is -0.0861.
With GGCTAACC, the “PBM E-score” value is -0.296.
The same measure for CTAATGTA: 0.143; for GAAGAAAC: 0.0197.
For the sequence ACAGCTAC, the “PBM E-score” value was -0.0979.
On to AAACTAAA, for which the “PBM E-score” value is 0.205.
Turning to CGTGTAAG, the “PBM E-score” value was 0.00677.
Take TATGACCA: the “PBM E-score” value was determined as 0.0481.
The same measure for GCGTGCCA: -0.266.
Take ATACTATC: the “PBM E-score” value turned out to be 0.0853.
The same measure for GATTCCAA: -0.0287.
CCCAGGAC: the “PBM E-score” value was 0.0729.
The same measure for GAAGTGTA: -0.103; for CCTCCGTC: -0.206.
Consider AATACTAC, for which the “PBM E-score” value came to 0.119.
In the case of ACGCTATC, the “PBM E-score” value is -0.203.
Turning to AGTAGACG, the “PBM E-score” value was 0.0483.
The same measure for GTAACGGA: 0.0735; for AAGAGCTT: -0.166.
As to GTAAGGAC, the “PBM E-score” value was determined as 0.268.
The same measure for ACAGGACG: 0.0345.
For the sequence GTTTAAAC, the “PBM E-score” value is 0.214.
AACTGGAG: the “PBM E-score” value is -0.2.
The value for ATAGAAAC was 0.0232; that for CCGGTACC was -0.139; that for AACGTATC was -0.214.
The value for AGGTCTGC was -0.227.
Consider GTGCGGTA, for which the “PBM E-score” value is -0.0985.
The same measure for CCAGCAGG: -0.306; for AGCTCAAT: 0.0483; for AGTAGAGC: -0.166.
Consider CTTACTCA, for which the “PBM E-score” value is -0.123.
Regarding CTGCGCCA, the “PBM E-score” value was -0.0239.
With AACTTCGC, the “PBM E-score” value is -0.0366.
On to AGGTTGAG, for which the “PBM E-score” value was -0.0914.
With TGTCCGAA, the “PBM E-score” value came out at 0.452.
Consider ATAATGAC, for which the “PBM E-score” value was -0.033.
AACCTCTA: the “PBM E-score” value is -0.0622.
The value for CTGTTTTC was -0.0669; that for ACAGGAGC was 0.0295.
The value for ACCCCTCA was -0.305; that for GGAAAGTA was 0.00177.
Regarding CCCGTCAG, the “PBM E-score” value was -0.179.
The value for AACTGTGA was 0.0858.
Regarding AGATACAT, the “PBM E-score” value was 0.241.
Take TCACGGGA: the “PBM E-score” value is 0.0822.
In the case of TGCGCCCA, the “PBM E-score” value was -0.0583.
For TGACAAAA, the “PBM E-score” value was determined as 0.402.
With ACACGACT, the “PBM E-score” value is 0.111.
Turning to GGACAACA, the “PBM E-score” value amounted to 0.337.
The value for ACCTTCGA was -0.0843; that for CATCGCAA was -0.159.
CAGCTTAA: the “PBM E-score” value was -0.0697.
The same measure for GAACCTGA: -0.0302; for ATAAAACC: 0.204; for CTACGCGA: 0.00041.
As to AACTTCAA, the “PBM E-score” value is 0.0618.
In the case of ATAAGAGA, the “PBM E-score” value came out at 0.21.
As for GTGAAATA, the “PBM E-score” value came out at 0.0459.
For ATACATAG, the “PBM E-score” value is 0.114.
In the case of CATGACAG, the “PBM E-score” value was 0.13.
As for AACCAATC, the “PBM E-score” value was determined as 0.0274.
For the sequence AAGCGAGC, the “PBM E-score” value is -0.0286.
In the case of TGGACCCA, the “PBM E-score” value is -0.00247.
The value for GGACACCC was -0.0113.
